The whole screen tested about 4,800 compounds, of which about 410 (8.5%) showed an effect of 50% or more. Some of the results follow.
The molecules below were run on Plasmodium falciparum (assay: Confirmatory screen in NF54 pLDH assay, in single point, at 2uM, 72h). Conditions: timepoint 72 hour.
Assay type: functional, Erythrocyte

SMILES	% Inhibition [%]
COc1ccc(C(=O)C[n+]2cc(-c3ccc(OC)cc3)n3c2CCCC3)cc1	65
CCOc1ccccc1NC(=O)C[C@H]1CCc2nnc(C3CCCC3)n2CC1	3
O=C(N[C@@H]1CC=C(c2ccc(F)cc2)CC1)c1nc2n(n1)CCCN2	10
Cc1ccc(Cc2nn3c(C4CCN(S(C)(=O)=O)CC4)nnc3s2)cc1C	-3
CC(C)N(C(=O)CCN1C(=O)CCC1=O)c1ccccc1Br	-19
COc1ccc(CNC(=O)[C@H](C)n2ccc3cc(S(=O)(=O)N4CCCC4)ccc32)cc1OC	9
CC1(C)OCc2cc(CNc3ccc4oc(=O)[nH]c4c3)ccc2O1	100
N#Cc1ccc(C(=O)N[C@H]2CCCc3c2cnn3-c2ccccn2)cc1	9
CN1CCCN(c2ccnc3ccsc23)CC1	39
CC(C)C(NC(=O)c1ccccc1F)C(=O)NC1CCC(N(C)C)C1 (configuration not stated)	-9
O=C(C#Cc1ccc(C(F)(F)F)cc1)NCC1(CO)CCC1	12
O=C(C1CC12CCCC2)N1CCCC(S(=O)(=O)N2CCc3ccccc32)C1 (configuration not stated)	8
COc1cc2c(cc1CNc1nc(N)nc3c1CCNCC3)CCC2	11
CC(C)(C)C(=O)Nc1cc(Br)c(O)c(Br)c1	-1
CN(CCN(C)C1CC1)C(=O)c1cc2[nH]cnc2cc1F	15
CCOC(=O)c1oc(NC(=O)OC(C)(C)C)nc1C(F)(F)F	5
CN1CCC(N2CCC(CN(Cc3ccncc3)Cc3c(F)cccc3Cl)CC2)CC1	99
O=C(NC1CCN(Cc2ccco2)CC1)c1ccco1	-2
Cc1cc2ncc(-n3cncn3)c(-c3ccccc3)n2n1	8
O=C(c1ccc(COc2ccccc2Br)cc1)N1CCN(c2cccc(C(F)(F)F)c2)CC1	-16
O=C1Nc2ccccc2O[C@H]2C[C@@H]1N(CC1CC1)C2	-10
Cc1cc2ncn([C@@H](C)c3nc(-c4cnccn4)cs3)c2cc1C	3
Cc1ccnc(-n2nccc2NC(=O)[C@H](C)Oc2ccccc2)c1	0

SMILES	% Inhibition [%]
Cn1ncc(-c2ncc(C(F)(F)F)cc2Cl)c1N	8
COc1ccc(N(C)S(=O)(=O)c2ccc3c(c2)CCN3C(=O)C2CCC2)cc1	9
Cc1ccc(N2C(=O)c3ccccc3[C@@H]2c2c[nH]c3ccccc23)cc1	37
NS(=O)(=O)N1CCN(Cc2ccn(C3CCCC3)n2)CC1	9
COC(=O)c1c(NC(C)=O)c2cc(NC3CCOCC3)cnc2n1CCc1ccc(OC)cc1	61
Cc1noc(C)c1CNC(=O)[C@H]1CCc2nnc(C3CCOCC3)n2CC1	-23
O=C(COCC(=O)Nc1cccc(Cl)c1Cl)NCCC1=CCCCC1	5
CC[C@H](O)CCNC(=O)Nc1ncc(CC(C)C)s1	2
CC(C)n1[nH]c(=O)c2c1NC(=O)C[C@H]2C1CCCCC1	10
CC1NC2(C(=O)N(Cc3ccc(F)cc3)c3ccccc32)C2C(=O)N(c3cccc4ccccc34)C(=O)C12 (configuration not stated)	2
Cc1cc2nn(CC(=O)Nc3ccc(C)c(C)c3)c(=O)n2c(-c2ccc(C(F)(F)F)cc2)n1	1
O=C(Nc1onc2c1CCC2)c1ccc2ccccc2c1	41
COc1cccnc1NC(=O)c1cnn(C)c1	9
NC(=O)N1CCC[C@H]1C(=O)NC1CC(=O)N(C2CC2c2ccccc2)C1 (some centres not stated)	8
O=C(CCC(=O)c1ccc(F)cc1F)NS(=O)(=O)c1cccnc1	1
CC(=O)c1ccc(NC(=O)Cn2c(-c3ccccc3)nc(C)cc2=O)cc1	10
Cc1ccc(F)cc1-n1c(=O)c2sccc2n(CC(=O)Nc2ccc3c(c2)CCC3)c1=O	13
CCN(CC)CCNCc1sccc1C	-16
Cc1noc(C)c1C(=O)NC[C@H](O)Cn1ccccc1=O	6
Cc1cc(OC(=O)c2cccnc2)c(C(C)C)cc1NC1=NS(=O)(=O)c2ccccc21	-6
COc1ccc(CCNc2oc(-c3cccnc3)nc2C#N)cc1OC	-5
OCCNCc1ccc(Cl)cc1Cl	6
CCNC(=O)N1CC[C@H](Oc2ccc3ccccc3n2)C1	32

SMILES	% Inhibition [%]
Cc1cc(S(=O)(=O)Nc2cn(C)c(=O)n(C)c2=O)sc1Cl	-10
O=C1CCC2(CCN(S(=O)(=O)c3ccc(F)cc3F)CC2)N1	8
CC(=O)N1c2c(C)cccc2[C@@H](C)CC1(C)C	16
CN1C(=O)[C@H](O)N(c2cccc3ccccc23)C1=O	9
CNC(=NCC(C)(C)c1ccc(OC)cc1)NC	7
O=C(c1ccccc1OCC1CC1)N1CC(O)C1	-3
Cc1ncc(C(=O)Nc2cc3c(=O)[nH]cnc3cc2F)c(C2CC2)n1	0
CC(C)n1cc(CN[C@@]2(CO)CCCc3ccccc32)cn1	11
Cc1cccc(NC(=O)c2cc(C)nc3c2c(C)nn3-c2ccc(F)cc2)c1	0
Cc1ccc(CNC(=O)N2CC[C@H](CC(=O)N(C)Cc3ccccc3)C2)cc1	12
Cn1c(N2CCN(C(=O)C[C@@H]3NC(=O)c4ccccc4N=C3O)CC2)nc2ccccc21	-4
Nc1cc(F)c(Br)cc1Cl	7
O=S(=O)(N[C@H]1CCc2nnc(-c3ccc(F)cc3)n2C1)N1CCCCC1	13
Cc1ccc(OCc2cccc(C(=O)N3CCC[C@@H]3CN3CCCCC3)c2)cn1	9
O=c1[nH]c2nc(N3CCCCC3)ncc2c(=O)n1Cc1ccco1	-14
COCc1cc2nn(CC(=O)Nc3ccc4c(c3)OCO4)c(=O)n2c(-c2ccccc2)n1	12
Nc1c(Br)cc2oc(-c3ccc4ccccc4c3)nc2c1Br	14
O=C(NCc1cc(F)cc(F)c1)c1ccc2ccccc2n1	14
O=S(=O)(c1ccc(Cl)cc1)N1CCN(C2CCCC2)CC1	14
COc1ccc(C(OC)C(C)NC(=O)Cc2c(C)[nH]c3ccnn3c2=O)cc1 (configuration not stated)	-15
Cc1ccc(NS(=O)(=O)c2ccc(NC(=O)Cc3ccccc3)cc2)cc1C	10
